{"source": "PubChem BioAssay AID2675", "about": "(National Center for Advancing Translational Sciences (NCATS), 2010)", "note": "Out of some 280,000 compounds screened, about 100 (0.036%) were called active. This list was built around the results that the source calls inconclusive (neither active nor inactive); the mix of calls is not that of the screen. Calls come from the whole dose curve; as a rule, active = well fitted inhibition curve with a large enough effect in the signal ratio, with a control signal flat (not every such curve was filed as active); inconclusive = small, poorly fitted or top-dose-only effect, or effect the other way, or a change in a side signal; inactive = no such curve, though single readings can be large or run the other way; the % refers to the signal ratio. Potencies beside an inconclusive call are fits to weak or partial responses and may not hold up. A note “side channel” means that the fit belongs to a control or component signal, not to the main read-out. % is set by controls: 0 for no effect and ±100 for the full control effect; potency is the fitted concentration of half-maximal effect; tags give direction and shape of the fitted curve or compound fluorescence and quenching."}
{"molecular_target": "Muscleblind-like protein 1 (Homo sapiens) (UniProt Q9NR56)", "sequence (Q9NR56 whole entry, looked up)": "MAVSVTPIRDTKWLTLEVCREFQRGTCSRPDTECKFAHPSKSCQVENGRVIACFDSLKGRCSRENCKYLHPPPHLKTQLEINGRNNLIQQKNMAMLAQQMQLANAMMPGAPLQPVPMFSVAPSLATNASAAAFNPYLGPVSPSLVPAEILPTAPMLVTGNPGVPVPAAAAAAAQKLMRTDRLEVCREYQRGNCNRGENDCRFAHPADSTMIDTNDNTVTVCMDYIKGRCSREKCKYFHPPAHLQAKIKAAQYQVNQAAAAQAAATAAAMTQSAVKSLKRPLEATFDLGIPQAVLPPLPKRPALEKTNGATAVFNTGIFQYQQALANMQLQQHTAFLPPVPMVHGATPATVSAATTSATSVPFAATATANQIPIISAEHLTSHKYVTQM", "test": "qHTS Assay for Inhibitors of MBNL1-poly(CUG) RNA binding", "conditions": "TR-FRET MBNL1-His/biotin-(CUG)12 binding, 665/545 ratio; activity change, negative = inhibition: at 57.5 µM (top of the series)", "outline": "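Ratiometric TR-FRET (665 over 545 nm, excitation 340 nm) tracks disruption of MBNL1-His/biotin-(CUG)12 complex after 60 min at room temperature, with compounds at 92 nM to 58 uM final.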"}
{"molecule": "Cc1ccc(F)cc1CNC(=O)c1cc(COc2ccc3ncccc3c2)on1", "activity change, negative = inhibition": "inactive: -3.73%"}
{"molecule": "Cc1ccc(-n2c(C)cn(C(=O)c3ccccc3)c2=S)cc1", "Potency": "inconclusive: 1.58 µM [quencher, side channel, full curve, poor fit]"}
{"molecule": "CCOc1ccccc1N1C(=O)c2cccnc2C1=O", "Potency": "inconclusive: 12.6 µM [quencher, partial curve]"}
{"molecule": "Cc1ccc(-c2[nH]c3cc(C(N)=O)ccc3c(=O)c2O)cc1", "Potency": "inconclusive: 25.1 µM [quencher, side channel, single point]"}
{"molecule": "COc1c(Br)cc2c(C)c(C(=O)O)oc2c1Br", "Potency": "inconclusive: 79.4 µM [inhibitor, partial curve]"}
{"molecule": "COc1ccc(N2CCN(S(=O)(=O)c3cccc4nsnc34)CC2)cc1", "Potency": "inconclusive: 5.01 µM [quencher, side channel, partial curve]"}
{"molecule": "O=C(Oc1ccc2ccccc2c1Cl)N1CCCCCC1", "Potency": "inconclusive: 0.1 µM [fluorescent, side channel, full curve]"}
{"molecule": "O=C(NCCNC(=O)c1ccc(-c2ccc(Cl)c(Cl)c2)o1)c1cnccn1", "Potency": "inconclusive: 28.2 µM [quencher, side channel, single point]"}
{"molecule": "CCCCNC(=O)c1ccc2c(c1)C(=O)N(Cc1ccncc1)C2=O", "Potency": "inconclusive: 15.8 µM [quencher, side channel, partial curve]"}
{"molecule": "OC(CON=C1c2ccccc2-c2ccccc21)CN1CCNCC1", "note": "(stereo unspecified)", "Potency": "inconclusive: 31.6 µM [quencher, side channel, single point]"}
{"molecule": "Cc1ccc(-c2c[n+](CC(=O)Nc3ccc(C)cc3C)c3n2CCC3)cc1", "activity change, negative = inhibition": "inactive: -8.3%"}
{"molecule": "Cc1ccc(OCCNC(=O)c2cc(C(=O)NCCOc3ccc(C)cc3)cc([N+](=O)[O-])c2)cc1", "Potency": "inconclusive: 8.91 µM [quencher, full curve]"}
{"molecule": "CCCCOc1ccc(C2=CSC3=NCCN23)cc1[N+](=O)[O-]", "Potency": "inconclusive: 28.2 µM [quencher, side channel, partial curve]"}
{"molecule": "O=C(CC(=O)c1ccccc1)Nc1cc([N+](=O)[O-])ccc1Cl", "Potency": "inconclusive: 22.4 µM [quencher, side channel, single point]"}
{"molecule": "COc1cccc(C(=O)Nc2nc(-c3ccc4c(c3)OCO4)cs2)c1", "Potency": "inconclusive: 8.91 µM [quencher, side channel, partial curve, poor fit]"}
{"molecule": "COc1ccc(CC(=O)Nc2cccc(/C(C)=N/NC(=O)c3cccc([N+](=O)[O-])c3)c2)cc1", "Potency": "inconclusive: 28.2 µM [quencher, side channel, partial curve]"}
{"molecule": "C/C=C/C(=O)Nc1nnc(-c2ccccc2C)s1", "Potency": "inconclusive: 7.94 µM [inhibitor, single point]"}
{"molecule": "CC(=O)Nc1ccc(/C=N/NC(=O)c2cccs2)cc1", "Potency": "inconclusive: 28.2 µM [quencher, side channel, single point]"}
{"molecule": "N#CC1=C(S)N=C(N)C(c2nc(-c3ccccc3)cs2)C12CCCC2", "note": "(stereo unspecified)", "activity change, negative = inhibition": "inactive: 9.35%"}
{"molecule": "C=CCn1c(-c2ccc(OC)cc2)nc2nc3ccccc3nc21", "Potency": "inconclusive: 2.82 µM [quencher, full curve]"}
{"molecule": "CN(C)S(=O)(=O)N1CCN(c2ccc([N+](=O)[O-])c(N3CCOCC3)c2)CC1", "Potency": "inconclusive: 14.1 µM [activator, partial curve, poor fit]"}
{"molecule": "O=C(CSc1ncccn1)N1CCN(C(=O)CSc2ncccn2)CC1", "Potency": "inconclusive: 8.91 µM [quencher, side channel, single point]"}
{"molecule": "c1csc(-c2cnc3ccccc3n2)c1", "Potency": "inconclusive: 31.6 µM [quencher, single point]"}
{"molecule": "Cc1cccc(NC(=O)NCc2ccc3c(c2)cc(C)n3C)c1", "Potency": "inconclusive: 7.08 µM [quencher, side channel, full curve]"}
{"molecule": "CC[n+]1c(/C=C/Nc2ccccc2)oc2ccccc21", "activity change, negative = inhibition": "inactive: 10.3%"}
{"molecule": "O=C(C1=C(O)C(=O)N(CCN2CCOCC2)C1c1ccc(Cl)cc1)c1cc2ccccc2o1", "note": "(stereo unspecified)", "activity change, negative = inhibition": "inactive: 54.8%"}
{"molecule": "CCOc1ccc(/C=N/NC(=O)c2ccc(Cn3cc([N+](=O)[O-])cn3)o2)cc1", "Potency": "inconclusive: 20 µM [quencher, side channel, single point]"}
{"molecule": "O=[N+]([O-])c1nn(-c2ccc3c(c2)OCCO3)n(O)c1=NC1CCCC1", "Potency": "inconclusive: 2.51 µM [quencher, side channel, full curve]"}
{"molecule": "Cc1cccc(N2CCN(C(c3ccc(N(C)C)cc3)c3nnnn3C(C)(C)C)CC2)c1C", "note": "(stereo unspecified)", "Potency": "inconclusive: 8.91 µM [quencher, side channel, single point]"}
{"molecule": "Cc1cc(C(=O)CN2C(=O)CN(C)C2=O)c(C)n1-c1cccc(S(=O)(=O)N2CCOCC2)c1", "activity change, negative = inhibition": "inactive: 2.99%"}
{"molecule": "O=C(N/N=C/c1cc([N+](=O)[O-])ccc1Cl)c1cnccn1", "Potency": "inconclusive: 2.51 µM [quencher, side channel, full curve]"}
{"molecule": "COc1ccc2nc(Cl)c(C#N)cc2c1", "Potency": "inconclusive: 11.2 µM [quencher, side channel, partial curve]"}
{"molecule": "O=C(Nc1nc(COc2ccccc2)cs1)C1CCC1", "Potency": "inconclusive: 5.62 µM [quencher, side channel, single point]"}
{"molecule": "CCOC(=O)c1oc2c(CN3CCCCC3C)c(O)ccc2c(=O)c1-c1ccc(OC)c(OC)c1", "note": "(stereo unspecified)", "Potency": "inconclusive: 14.1 µM [quencher, side channel, partial curve]"}
{"molecule": "Cc1cc(O)c(C(=O)/C=C/c2ccc(Cl)cc2)c(=O)o1", "activity change, negative = inhibition": "inactive: 7.84%"}
{"molecule": "COc1ccc(CNC(=O)C2CCC(=O)N(CCCN3CCCC3=O)C2)c(OC)c1", "note": "(stereo unspecified)", "activity change, negative = inhibition": "inactive: -0.0092%"}
{"molecule": "O=C(c1ccc([N+](=O)[O-])s1)N1CCc2ccccc2C1", "Potency": "inconclusive: 14.1 µM [quencher, side channel, partial curve]"}
{"molecule": "O=C(CSc1nc2ccccc2[nH]1)NCc1ccc2c(c1)OCO2", "Potency": "inconclusive: 0.251 µM [fluorescent, side channel, partial curve]"}
{"molecule": "O=C(N/N=C/c1ccco1)c1ccccn1", "Potency": "inconclusive: 20 µM [quencher, side channel, partial curve]"}
{"molecule": "COc1ccc(OC)c(C2CC(=O)NC(SC)=C2C#N)c1", "note": "(stereo unspecified)", "activity change, negative = inhibition": "inactive: 4.33%"}
{"molecule": "CC(C)OP(=O)(OC(C)C)C(NC(=O)c1cccc([N+](=O)[O-])c1)C(N)=O", "note": "(stereo unspecified)", "Potency": "inconclusive: 11.2 µM [quencher, side channel, partial curve, poor fit]"}
{"molecule": "COc1ccc2c3c(cccc13)N(C)N=C2C", "Potency": "inconclusive: 5.01 µM [quencher, side channel, partial curve]"}
{"molecule": "O=C(NCCc1c[nH]c2ccccc12)OCCSS(=O)(=O)O", "activity change, negative = inhibition": "inactive: -0.675%"}
{"molecule": "COCCCn1c(-c2ccc(OC)cc2)nc2nc3ccccc3nc21", "Potency": "inconclusive: 25.1 µM [quencher, side channel, partial curve]"}
{"molecule": "CC(=NCCN1CCOCC1)C1=C(O)c2ccccc2C1=O", "Potency": "inconclusive: 20 µM [quencher, side channel, single point]"}
{"molecule": "O=C(CC12CC3CC(CC(C3)C1)C2)NC(=S)NCc1ccccc1", "activity change, negative = inhibition": "inactive: -11.1%"}
{"molecule": "COc1ccc(CN=C(C#N)C2=C(O)c3ccccc3C2=O)cc1", "Potency": "inconclusive: 39.8 µM [quencher, partial curve, poor fit]"}
{"molecule": "O=C(OCC(=O)N1CCCCC1)c1cc2ccccc2cc1O", "Potency": "inconclusive: 28.2 µM [quencher, side channel, partial curve]"}
{"molecule": "O=C(NC(Cc1ccccc1)c1nc2ccccc2[nH]1)c1cccc([N+](=O)[O-])c1", "note": "(stereo unspecified)", "Potency": "inconclusive: 14.1 µM [quencher, side channel, partial curve]"}
{"molecule": "CCN1CCN(C(c2cccs2)C(C)NC(=O)c2ccccc2F)CC1", "note": "(stereo unspecified)", "Potency": "inconclusive: 0.891 µM [fluorescent, side channel, partial curve, poor fit]"}
{"molecule": "O=C(c1ccco1)N(CCCN1CCOCC1)c1nc(-c2ccc(Cl)cc2)cs1", "activity change, negative = inhibition": "inactive: 15%"}
{"molecule": "Cc1ccc(C(=O)Nc2cccc([N+](=O)[O-])c2)cc1S(=O)(=O)Nc1ccc(C(=O)O)cc1", "Potency": "inconclusive: 28.2 µM [quencher, side channel, partial curve]"}
{"molecule": "O=C(Nc1ccccc1N1CCCC1)c1ccc2ccccc2c1", "activity change, negative = inhibition": "inactive: 9.01%"}
{"molecule": "CCN1CCN(C(=O)/C=C/c2ccc([N+](=O)[O-])cc2)CC1", "Potency": "inconclusive: 15.8 µM [quencher, side channel, partial curve]"}
{"molecule": "CNc1c([N+](=O)[O-])cnn1-c1ccc(C)cc1", "Potency": "inconclusive: 15.8 µM [quencher, side channel, partial curve]"}
{"molecule": "O=C(O)c1cccc(NC2=C(Cl)C(=O)c3ccccc3C2=O)c1", "Potency": "inconclusive: 39.8 µM [quencher, single point]"}
{"molecule": "O=C(O)CC12CC3CC(C1)CC(n1ncc(NCc4ccccc4Cl)c(Cl)c1=O)(C3)C2", "Potency": "inconclusive: 31.6 µM [quencher, side channel, single point]"}
{"molecule": "CCOC(=O)Cn1cnc(-c2ccc([N+](=O)[O-])cc2)c1", "Potency": "inconclusive: 8.91 µM [quencher, side channel, partial curve]"}
{"molecule": "C=CCn1c(O)c(N=Nc2ccccc2C)c2ccccc21", "Potency": "inconclusive: 12.6 µM [quencher, side channel, partial curve]"}
{"molecule": "O=C(c1cc2ccccc2oc1=O)N1CCSC1c1ccco1", "note": "(stereo unspecified)", "Potency": "inconclusive: 28.2 µM [quencher, side channel, single point]"}
{"molecule": "CCN(CC)C(=O)Cn1cnc2ccccc2c1=O", "Potency": "inconclusive: 79.4 µM [inhibitor, single point]"}
